Source: publication PMC9911399, “Two distinct binding modes provide the RNA-binding protein RbFox with extraordinary sequence specificity”
Numbering of substitutions follows the chain as printed; changes in the protein carry UniProt numbers. The list shows a part of the results.

T1: RBFOX1 RRM RbFoxmut (Fox-RRM*) (Homo sapiens, UniProt Q9NWB1 109-208, R118D;E147R;N151S;E152T)
T1 sequence: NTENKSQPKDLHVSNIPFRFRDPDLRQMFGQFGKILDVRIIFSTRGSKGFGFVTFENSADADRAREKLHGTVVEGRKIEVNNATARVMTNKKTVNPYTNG

B1: UAUUAAC (DNA:RNA)
RNA: GGGAGACCGGAAUUCAGAUUGUCCUAUUAACUUAAAUCCCGUCGUAGCCACCA
DNA 1: CAATCTGAATTCCGGTCTCCC
DNA 2: TGGTGGCTACGACGGGATT
B2: AAUGAAU (DNA:RNA)
RNA: B1 RNA with U25A, U28G, C31U
DNA 1: CAATCTGAATTCCGGTCTCCC
DNA 2: TGGTGGCTACGACGGGATT
B3: UACCAAG (DNA:RNA)
RNA: B1 RNA with U27C, U28C, C31G
DNA 1: CAATCTGAATTCCGGTCTCCC
DNA 2: TGGTGGCTACGACGGGATT
B4: UAACCAC (DNA:RNA)
RNA: B1 RNA with U27A, U28C, A29C
DNA 1: CAATCTGAATTCCGGTCTCCC
DNA 2: TGGTGGCTACGACGGGATT
B5: CUCAUGU (DNA:RNA)
RNA: GGGAGACCGGAAUUCAGAUUGUCCCUCAUGUUUAAAUCCCGUCGUAGCCACCA
DNA 1: CAATCTGAATTCCGGTCTCCC
DNA 2: TGGTGGCTACGACGGGATT
B6: AGCGCGA (DNA:RNA)
RNA: B5 RNA with C25A, U26G, A28G, U29C, U31A
DNA 1: CAATCTGAATTCCGGTCTCCC
DNA 2: TGGTGGCTACGACGGGATT
B7: AGGAGCC (DNA:RNA)
RNA: B5 RNA with C25A, U26G, C27G, U29G, G30C, U31C
DNA 1: CAATCTGAATTCCGGTCTCCC
DNA 2: TGGTGGCTACGACGGGATT
B8: CUUUUCC (DNA:RNA)
RNA: B5 RNA with C27U, A28U, G30C, U31C
DNA 1: CAATCTGAATTCCGGTCTCCC
DNA 2: TGGTGGCTACGACGGGATT
B9: UCCUCCU (DNA:RNA)
RNA: B5 RNA with C25U, U26C, A28U, U29C, G30C
DNA 1: CAATCTGAATTCCGGTCTCCC
DNA 2: TGGTGGCTACGACGGGATT
B10: AGAACAC (DNA:RNA)
RNA: B1 RNA with U25A, A26G, U27A, U28A, A29C
DNA 1: CAATCTGAATTCCGGTCTCCC
DNA 2: TGGTGGCTACGACGGGATT
B11: UGGCCUC (DNA:RNA)
RNA: B1 RNA with A26G, U27G, U28C, A29C, A30U
DNA 1: CAATCTGAATTCCGGTCTCCC
DNA 2: TGGTGGCTACGACGGGATT
B12: AGCAGUG (DNA:RNA)
RNA: B5 RNA with C25A, U26G, U29G, G30U, U31G
DNA 1: CAATCTGAATTCCGGTCTCCC
DNA 2: TGGTGGCTACGACGGGATT
B13: GGGGAAU (DNA:RNA)
RNA: B1 RNA with U25G, A26G, U27G, U28G, C31U
DNA 1: CAATCTGAATTCCGGTCTCCC
DNA 2: TGGTGGCTACGACGGGATT
B14: GUAGCGU (DNA:RNA)
RNA: B5 RNA with C25G, C27A, A28G, U29C
DNA 1: CAATCTGAATTCCGGTCTCCC
DNA 2: TGGTGGCTACGACGGGATT
B15: AAGGCUU (DNA:RNA)
RNA: B5 RNA with C25A, U26A, C27G, A28G, U29C, G30U
DNA 1: CAATCTGAATTCCGGTCTCCC
DNA 2: TGGTGGCTACGACGGGATT
B16: UGGACCC (DNA:RNA)
RNA: B1 RNA with A26G, U27G, U28A, A29C, A30C
DNA 1: CAATCTGAATTCCGGTCTCCC
DNA 2: TGGTGGCTACGACGGGATT
B17: AUGUGUG (DNA:RNA)
RNA: B5 RNA with C25A, C27G, A28U, U29G, G30U, U31G
DNA 1: CAATCTGAATTCCGGTCTCCC
DNA 2: TGGTGGCTACGACGGGATT
B18: UUUAAUU (DNA:RNA)
RNA: B5 RNA with C25U, C27U, U29A, G30U
DNA 1: CAATCTGAATTCCGGTCTCCC
DNA 2: TGGTGGCTACGACGGGATT
B19: AAUCGCA (DNA:RNA)
RNA: B1 RNA with U25A, U28C, A29G, A30C, C31A
DNA 1: CAATCTGAATTCCGGTCTCCC
DNA 2: TGGTGGCTACGACGGGATT
B20: GAGUUAC (DNA:RNA)
RNA: B1 RNA with U25G, U27G, A29U
DNA 1: CAATCTGAATTCCGGTCTCCC
DNA 2: TGGTGGCTACGACGGGATT

biological target: T1, RBFOX1 RRM RbFoxmut (Fox-RRM*); experiment: EMSA; HiTS-Eq, 1 nM pool, 10 min; buffer printed only for the single-RNA assays: 10 mM Tris pH 7.5, 150 mM NaCl, 3.4 mM EDTA, 0.001% NP-40, 30 C; conditions: tags: His6 N-terminal (pET28a); label: 5' 32P
How it was run: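 Purified RbFox RRM, wild type or mutant, was incubated for 10 min in 50 µL with 1 nM of a 5′-radiolabelled RNA pool carrying 7 randomized nucleotides, whose flanks were annealed to DNA oligonucleotides, over a series of increasing protein concentrations. Unbound RNA was resolved on 8% native PAGE, cut out, reverse-transcribed, barcoded by PCR and sequenced on an Illumina HiSeq 2500. Relative association constants were derived from changes in read counts for each RNA species versus the control reaction and normalised to the cognate motif.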

Binder | binding signal
B1 | 0.0973 KA relative to UGCAUGU
B2 | 0.0909 KA relative to UGCAUGU
B3 | 0.0709 KA relative to UGCAUGU
B4 | 0.0709 KA relative to UGCAUGU
B5 | 0.143 KA relative to UGCAUGU
B6 | 0.0743 KA relative to UGCAUGU
B7 | 0.156 KA relative to UGCAUGU
B8 | 0.0453 KA relative to UGCAUGU
B9 | 0.0641 KA relative to UGCAUGU
B10 | 0.0588 KA relative to UGCAUGU
B11 | 0.106 KA relative to UGCAUGU
B12 | 0.126 KA relative to UGCAUGU
B13 | 0.0935 KA relative to UGCAUGU
B14 | 0.143 KA relative to UGCAUGU
B15 | 0.0703 KA relative to UGCAUGU
B16 | 0.0917 KA relative to UGCAUGU
B17 | 0.443 KA relative to UGCAUGU
B18 | 0.0813 KA relative to UGCAUGU
B19 | 0.0804 KA relative to UGCAUGU
B20 | 0.0884 KA relative to UGCAUGU
